Measurements published in PubChem BioAssay AID485281 (National Center for Advancing Translational Sciences (NCATS), 2010).
Screen size: about 350,000 compounds; about 260 (0.074%) were called active. The shares of active, inactive and inconclusive entries below differ from those in the screen. Calls come from the whole dose curve; as a rule, active = well fitted inhibition curve with a large enough effect; inconclusive = small, poorly fitted or top-dose-only effect; inactive = no such curve, though single readings can be large or run the other way. Where the call is inconclusive, the potency comes from a doubtful curve fit.

molecular target: Ferritin light chain (Equus caballus) (UniProt P02791); test: qHTS Assay for Identification of Novel General Anesthetics; conditions: apoferritin/1-aminoanthracene competitive binding, fluorescence; activity change, negative = displacement: at 77.5 µM (top of the series); note: nearly all actives have a fitted effect of over 20% in size
Method in brief: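 Concentration-response curves derived by four-parameter Hill fitting of normalized fluorescence, where compounds displaced 1-AMA from 10 uM horse apoferritin following a brief 10 min room-temperature incubation; propofol titration acted as positive control.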
% is set by controls: 0 for no effect and ±100 for the full control effect; potency is the fitted concentration of half-maximal effect; tags give direction and shape of the fitted curve.

UniProt P02791, sequence (P02791 whole entry, looked up): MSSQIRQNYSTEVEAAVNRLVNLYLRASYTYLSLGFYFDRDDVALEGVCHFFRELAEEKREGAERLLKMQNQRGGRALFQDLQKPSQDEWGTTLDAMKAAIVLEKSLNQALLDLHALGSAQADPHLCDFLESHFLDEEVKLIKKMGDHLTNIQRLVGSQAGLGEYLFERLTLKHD

Potency, inconclusive:
CC(NC(=O)c1ccccc1)C(=O)OCC(=O)c1ccc(Br)cc1 (configuration not stated) 14.1 µM [inhibitor, partial curve]
Cc1cc(C)cc(N(C(C)C(=O)NCCC2=CCCCC2)S(C)(=O)=O)c1 (configuration not stated) 44.7 µM [inhibitor, single point]
Cc1cc(NC(=O)CSc2ccc3nnc(-c4ccc(Cl)cc4)n3n2)no1 28.2 µM [inhibitor, single point]
Cc1ccc(OCCNC(=O)c2cc(C(=O)NCCOc3ccc(C)cc3)cc([N+](=O)[O-])c2)cc1 12.6 µM [inhibitor, partial curve]
O=C(Oc1ccc2ccccc2c1Cl)N1CCCCCC1 22.4 µM [inhibitor, partial curve]
COc1ccccc1N1CCN(/N=C/C=C\c2ccco2)CC1 25.1 µM [inhibitor, partial curve]
O=C(NC12CC3CC(CC(C3)C1)C2)c1ccccc1 31.6 µM [inhibitor, partial curve]
Cc1cc(C(=O)NC2CCCc3c2cnn3-c2ccc(C)c(C)c2)nc(C)n1 (configuration not stated) 35.5 µM [inhibitor, partial curve]
Cc1ccc(S(=O)(=O)/N=C(/Nc2ccc3[nH]c(=O)[nH]c3c2)c2ccccc2)cc1 35.5 µM [inhibitor, single point]
COCCn1c(SCC(=O)Nc2sc(C)c(C)c2C#N)nnc1-c1ccc(OC)cc1 39.8 µM [inhibitor, partial curve]
Cc1cc(N2CCOCC2)nc2ccc(NC(=O)CCC(=O)N3CCCC(C)C3)cc12 (configuration not stated) 6.31 µM [inhibitor, full curve, poor fit]
Cc1c(C(=O)N2CCC(C)CC2)c(S(=O)(=O)Nc2cccc(C(F)(F)F)c2)c(C)n1C 25.1 µM [inhibitor, single point]
COc1ccnc(Oc2cccc(C(F)(F)F)c2)c1C(=O)N/C=N/OCc1ccccc1F 35.5 µM [inhibitor, partial curve]
O=S(=O)(Cc1ccccc1)NCCc1ccc(F)cc1 35.5 µM [inhibitor, partial curve]
Nc1nc(SCc2ccccc2Cl)ns1 39.8 µM [inhibitor, single point]
O=c1/c(=C/c2ccc(CNS(=O)(=O)c3ccccc3)o2)sc2n1CCN=2 25.1 µM [inhibitor, partial curve]
Cc1ccc(-n2c(C)cc(C)c(C#N)c2=O)cc1Cl 8.91 µM [inhibitor, full curve, poor fit]
Cc1ccc(S(=O)(=O)NNc2nc3ccccc3nc2C(F)(F)F)cc1 35.5 µM [inhibitor, partial curve, poor fit]
N/C(=N\OC(=O)CCC1CCCCC1)c1ccccn1 35.5 µM [inhibitor, partial curve]
Cc1cc([N+](=O)[O-])ccc1NCc1ccc2ccccc2c1 22.4 µM [inhibitor, partial curve]
CC(C)N(Cc1ccccc1)C(=O)C1CCCN(c2ncnc3onc(-c4ccc(F)cc4)c23)C1 (configuration not stated) 3.55 µM [inhibitor, full curve, poor fit]
COc1cccc(NS(=O)(=O)CC23CCC(CC2=O)C3(C)C)c1 (configuration not stated) 15.8 µM [inhibitor, partial curve]
CCc1ccc2c(COn3nnc4ccc(S(=O)(=O)N(C)C)cc43)cc(=O)oc2c1 15.8 µM [inhibitor, partial curve]
CC(C)c1ccc(NS(=O)(=O)c2ccc3[nH]cc(C(=O)NCCc4ccccc4)c(=O)c3c2)cc1 31.6 µM [inhibitor, partial curve]
Cc1ccc(NC(=O)CO/N=C/c2ccc(N(C)C)cc2)cc1 50.1 µM [inhibitor, partial curve]
CCCCOC(=O)Nc1cc(Cl)ccc1C 31.6 µM [inhibitor, partial curve]
Nc1nnc(SC2CCCC2)s1 31.6 µM [inhibitor, partial curve]
O=C(OCC(=O)N1CCCCC1)c1cc2ccccc2cc1O 25.1 µM [inhibitor, partial curve]
CCC(=O)Nc1cccc(C(=O)/C=C/c2cccs2)c1 28.2 µM [inhibitor, partial curve]
CCN(CC)S(=O)(=O)c1cc(C(=O)NC2=NCCS2)ccc1Cl 28.2 µM [inhibitor, partial curve]
COc1ccc(C(=O)NC(=S)NC(C)(C)C)cc1Br 35.5 µM [inhibitor, partial curve]
CCCOc1ccc(-c2c(C(=O)N/N=C/c3ccc(C)cc3)nnn2-c2nonc2N)cc1 35.5 µM [inhibitor, single point]
NC(=O)CSc1nnc(SCc2ccc(F)cc2)s1 14.1 µM [inhibitor, partial curve]
O=c1o[nH]c(-c2ccccc2)c1C=Nc1ccc(Cl)cc1 28.2 µM [inhibitor, single point]
NCCCCCc1nnc(SCc2cccc(Cl)c2)o1 28.2 µM [inhibitor, partial curve]
CC(C)(C)OC(=O)NS(=O)(=O)Nc1ccccc1Br 35.5 µM [inhibitor, single point]
COc1ccc(-c2nnc(SCC(=O)N(C)C3CCCCC3)o2)cc1OC 15.8 µM [inhibitor, partial curve]
CC(=O)c1cccc(NS(=O)(=O)c2cc(-c3cnc(C4CC4)o3)ccc2C)c1 56.2 µM [inhibitor, single point]
CCc1nn(CC(=O)N(C)Cc2ccccc2)c(=O)c2cc3sccc3n12 22.4 µM [inhibitor, partial curve]
Cc1cc(/C=C2\SC(=S)N(C)C2=O)c(C)n1-c1ccc(O)cc1 25.1 µM [inhibitor, partial curve]
Clc1cc(Br)ccc1NCc1cccnc1 50.1 µM [inhibitor, single point]
CN(Cc1nccn1C)C(=O)CCc1nnc(CCC2CCCCC2)o1 25.1 µM [inhibitor, partial curve]
CCOc1ccc(/C=N/NC(=O)c2ccc(Cn3cc([N+](=O)[O-])cn3)o2)cc1 31.6 µM [inhibitor, partial curve]
CC[n+]1c(/C=C/Nc2ccccc2)oc2ccccc21 35.5 µM [inhibitor, partial curve]
Cc1cccc(Cn2cnc3ccccc32)c1 39.8 µM [inhibitor, partial curve]
CCc1cccc(NC(=O)CN(c2ccc(OC)cc2)S(=O)(=O)c2c(C)n[nH]c2C)c1 12.6 µM [inhibitor, partial curve]
Cc1cccc(Cc2cnc(NC(=O)c3ccc(C)o3)s2)c1 10 µM [inhibitor, full curve]
Cc1ccc(COC(=O)c2[nH]c3c(c2C)C(=O)CC(c2ccc(N(C)C)cc2)C3)cc1 (configuration not stated) 3.55 µM [inhibitor, partial curve]
CC1CCCN(C(=O)c2cc3ccccc3cc2O)C1 (configuration not stated) 25.1 µM [inhibitor, partial curve]
CCOC(=O)N1CCN(C(=O)CN(C2CCCCC2)S(=O)(=O)c2ccc(Cl)cc2)CC1 50.1 µM [inhibitor, partial curve]
CCOc1ccc(S(=O)(=O)NC2CCCC2)cc1 39.8 µM [inhibitor, partial curve]

Activity change, negative = displacement, inactive:
CCOc1ccccc1N1C(=O)c2cccnc2C1=O 3.15%
COc1ccc(NC(=O)c2sc3nc4c(c(-c5ccc(OC)cc5)c3c2N)C(=O)CC(C)(C)C4)cc1 0.0149%
CCCCCOC(=O)Cc1c(O)c2ccccc2[nH]c1=O 1.07%
Cc1ccc2nc(/C(C#N)=C\c3ccc(N4CCOCC4)o3)[nH]c2c1 -15.3%
COc1ccc(OC)c(CCNC(=O)c2cnn(-c3ccc(C)cc3C)c2C2CCN(C(=O)OC(C)(C)C)CC2)c1 -7.16%
Cc1ccc(-n2nc(C)c3c(C)cc(=O)n(CC(=O)NC(C)c4ccccc4)c32)cc1 (configuration not stated) -9.41%
COc1ccc(NCc2cc3cc4c(cc3n(CC(=O)Nc3ccc(C)c(C)c3)c2=O)OCO4)cc1 -10.5%
CN(Cc1ccccc1)c1ncnc2c1nnn2C -15.8%
Cc1ccc(CSCCC(=O)NCc2ccc(F)cc2Cl)cc1 16%
Cc1cccc(N(C(=O)CCC(=O)Nc2cc(C)on2)C(C(=O)NC2CCCC2)c2ccc(C)o2)c1 (configuration not stated) -8.08%
O=[N+]([O-])c1nn(-c2ccc3c(c2)OCCO3)n(O)c1=NC1CCCC1 -15%
Clc1ccccc1Nc1nc(-c2ccncc2)nc2ccccc12 8.62%
CCOP(=O)(OCC)C(C#N)=C1SCN(c2ccc(Cl)cc2)CS1 0.0063%
O=C(Cc1ccccc1)NCc1ccc2c(c1)OCO2 -9.78%
O=C(CSc1nnc(-c2cccnc2)n1Cc1ccccc1)NCc1ccccc1 -8.59%
O=C(COC(=O)/C=C/c1cccc(F)c1)Nc1ncccn1 -18.3%
